In experiment [1] the test system is RAW-Dual. Description: IRF Lucia reporter activity, fold change vs agonist alone; cytotoxicity flag (confluency mask): not cytotoxic; higher = enhanced IRF activity. Put shortly:
(§1)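 RAW-Dual macrophages were seeded in DMEM at 50,000 cells/well in 384-well plates, given 50 nL of library stock by pin tool, and given a PRR agonist 1 h later. Plates were held at 37 °C, 5% CO2 for 20 hours, after which supernatant was read for IRF by QuantiLuc luminescence and for NF-κB by QuantiBlue absorbance at 620 nm. Reporter activity is expressed as fold change over wells that received agonist alone. A well was called cytotoxic when IncuCyte confluency fell below 70% of agonist controls in both mask sets.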

The test system of experiment [2] is RAW-Dual. Put plainly: IRF Lucia reporter activity, fold change vs agonist alone; higher = enhanced IRF activity. The conditions noted are these: agonist: MPLA (TLR4) […]. Put shortly: as §1
Experiment [3] relates to RAW-Dual. Description: IRF Lucia reporter activity, fold change vs agonist alone; cytotoxicity flag (confluency mask): cytotoxic (confluency <70% of control); higher = enhanced IRF activity. Put shortly: as §1
Where [4] appears, read: agonist: 3'3'-cGAMP (STING) 10 ug/mL.
The mark [5] stands for this setting: library stock concentration (final ~1000-fold dilution): 10 mM, cytotoxicity flag (confluency mask): not cytotoxic.

Consider 27 compounds from the supplement of paper PMC10037445.

± gives the standard deviation of the averaged measurements. The full ranking holds about 2,900 compounds; the median of “IRF Lucia reporter activity, fold change vs agonist alone” is about 0.9, and the highest 2% start at about 2.8. Some of the results follow.

On to `Cc1nc2ccc(CN(C)c3ccc(C(=O)NC(CCC(=O)O)C(=O)O)s3)cc2c(=O)[nH]1` (centres undefined) (library stock concentration (final ~1000-fold dilution): 10 mM), for which the entries for the “IRF Lucia reporter activity” value in experiment [1] (setting [4]) and in experiment [1] (agonist: LPS (TLR4) 0.1 ug/mL) were 0.842 and 1.04, respectively.
As for `Cc1nc2ccc(CN(C)c3ccc(C(=O)NC(CCC(=O)O)C(=O)O)s3)cc2c(=O)[nH]1` (centres undefined), in experiment [2] (setting [5]), the “IRF Lucia reporter activity” value turned out to be 0.988.
`COC(=O)NC(C(=O)N1CCCC1c1ncc(-c2ccc(-c3ccc(-c4cnc(C5CCCN5C(=O)C(NC(=O)OC)C(C)C)[nH]4)cc3)cc2)[nH]1)C(C)C` (centres undefined) (library stock concentration (final ~1000-fold dilution): 10 mM): the entries for the “IRF Lucia reporter activity” value in experiment [1] (setting [4]) and in experiment [1] (agonist: LPS (TLR4) 0.1 ug/mL) were 1.04 and 4.15, respectively.
Regarding `COC(=O)NC(C(=O)N1CCCC1c1ncc(-c2ccc(-c3ccc(-c4cnc(C5CCCN5C(=O)C(NC(=O)OC)C(C)C)[nH]4)cc3)cc2)[nH]1)C(C)C` (centres undefined), in experiment [2] (setting [5]), the “IRF Lucia reporter activity” value was found to be 3.26.
For `COC(=O)C12CCC(C)(C)CC1C1C(=O)C=C3C4(C)C=C(C#N)C(=O)C(C)(C)C4CCC3(C)C1(C)CC2` (centres undefined) (library stock concentration (final ~1000-fold dilution): 10 mM), the “IRF Lucia reporter activity” value in experiment [3] (setting [4]) is 0.0165 ± 0.0022; in experiment [3] (agonist: LPS (TLR4) 0.1 ug/mL) it was 0.0174 ± 0.0077.
As to `CN(C)CCCC1(c2ccc(F)cc2)OCc2cc(C#N)ccc21.O=C(O)C(=O)O` (centres undefined) (library stock concentration (final ~1000-fold dilution): 10 mM), the “IRF Lucia reporter activity” value in experiment [1] (setting [4]) came out at 1.08; in experiment [1] (agonist: LPS (TLR4) 0.1 ug/mL) it was 1.32.
As for `CN(C)CCCC1(c2ccc(F)cc2)OCc2cc(C#N)ccc21.O=C(O)C(=O)O` (centres undefined), the “IRF Lucia reporter activity” value in experiment [2] (setting [5]) came to 1.3.
In the case of `O=C(O)c1ccc2nc(-c3cc(Cl)cc(Cl)c3)oc2c1` (library stock concentration (final ~1000-fold dilution): 10 mM), the “IRF Lucia reporter activity” value in experiment [1] (setting [4]) was 1.05; in experiment [1] (agonist: LPS (TLR4) 0.1 ug/mL), 0.734.
As to `O=C(O)c1ccc2nc(-c3cc(Cl)cc(Cl)c3)oc2c1`, the “IRF Lucia reporter activity” value in experiment [2] (setting [5]) was 1.11.
On to `O=C(O)CC(CC(=O)O)C(=O)O`, for which, in experiment [2] (setting [5]), the “IRF Lucia reporter activity” value came to 0.993.
In the case of `O=C(O)CC(CC(=O)O)C(=O)O` (library stock concentration (final ~1000-fold dilution): 10 mM), the “IRF Lucia reporter activity” value in experiment [1] (setting [4]) was determined as 1.04; in experiment [1] (agonist: LPS (TLR4) 0.1 ug/mL), 0.675.
Consider `CNC(=O)c1cc(Oc2ccc(NC(=O)Nc3ccc(Cl)c(C(F)(F)F)c3)cc2)ccn1.Cc1ccc(S(=O)(=O)O)cc1` (library stock concentration (final ~1000-fold dilution): 10 mM), for which the “IRF Lucia reporter activity” value is 0.079 in experiment [3] (setting [4]) and 0.344 in experiment [3] (agonist: LPS (TLR4) 0.1 ug/mL).
Consider `CNC(=O)c1cc(Oc2ccc(NC(=O)Nc3ccc(Cl)c(C(F)(F)F)c3)cc2)ccn1.Cc1ccc(S(=O)(=O)O)cc1`, for which the “IRF Lucia reporter activity” value in experiment [2] (library stock concentration (final ~1000-fold dilution): 10 mM, cytotoxicity flag (confluency mask): cytotoxic (confluency <70% of control)) is 0.577.
On to `Nc1ccc(-c2cccc(C(=O)Nc3cnc4nc(N5CCOCC5)oc4c3)n2)cn1` (library stock concentration (final ~1000-fold dilution): 10 mM), for which the “IRF Lucia reporter activity” value in experiment [1] (setting [4]) turned out to be 0.717; in experiment [1] (agonist: LPS (TLR4) 0.1 ug/mL), 1.48.
As for `CCn1c(-c2nonc2N)nc2c(C#CC(C)(C)O)ncc(OCC3CCCNC3)c21` (centres undefined), in experiment [2] (setting [5]), the “IRF Lucia reporter activity” value was found to be 0.0565.
For the compound `CCn1c(-c2nonc2N)nc2c(C#CC(C)(C)O)ncc(OCC3CCCNC3)c21` (centres undefined) (library stock concentration (final ~1000-fold dilution): 10 mM), the “IRF Lucia reporter activity” value in experiment [1] (setting [4]) was 0.017; in experiment [1] (agonist: LPS (TLR4) 0.1 ug/mL) it was 0.0522.
On to `Cl.c1ccc2c(-c3cnn4cc(-c5ccc(N6CCNCC6)cc5)cnc34)ccnc2c1`, for which the “IRF Lucia reporter activity” value in experiment [2] (library stock concentration (final ~1000-fold dilution): 10 mM water, cytotoxicity flag (confluency mask): not cytotoxic) is 1.21.
Turning to `Cl.c1ccc2c(-c3cnn4cc(-c5ccc(N6CCNCC6)cc5)cnc34)ccnc2c1` (library stock concentration (final ~1000-fold dilution): 10 mM water), the “IRF Lucia reporter activity” value in experiment [1] (setting [4]) worked out at 0.607; in experiment [1] (agonist: LPS (TLR4) 0.1 ug/mL), 0.687.
On the same counts, the results for `O=[N+]([O-])c1ccc(Nc2ccccc2-c2ccccc2)c2nonc12` (library stock concentration (final ~1000-fold dilution): 10 mM) are 0.785 and 0.968.
As for `C[N+](C)(C)CC(O)CC(=O)O` (centres undefined) (library stock concentration (final ~1000-fold dilution): 10 mM), the “IRF Lucia reporter activity” value turned out to be 0.854 in experiment [1] (setting [4]) and 0.93 in experiment [1] (agonist: LPS (TLR4) 0.1 ug/mL).
For `COc1nc2ccc(Br)cc2cc1C(c1ccccc1)C(O)(CCN(C)C)c1cccc2ccccc12.O=C(O)/C=C/C(=O)O` (centres undefined) (library stock concentration (final ~1000-fold dilution): 10 mM), in that order: 0.888 and 0.812.
In the case of `COc1nc2ccc(Br)cc2cc1C(c1ccccc1)C(O)(CCN(C)C)c1cccc2ccccc12.O=C(O)/C=C/C(=O)O` (centres undefined), the “IRF Lucia reporter activity” value in experiment [2] (setting [5]) was 0.751.
Same read-out and setting: for `CC(N)C12CC3CC(CC(C3)C1)C2.Cl` (centres undefined) the value was 0.976.
With `CC(N)C12CC3CC(CC(C3)C1)C2.Cl` (centres undefined) (library stock concentration (final ~1000-fold dilution): 10 mM), the “IRF Lucia reporter activity” value in experiment [1] (setting [4]) amounted to 1.14; in experiment [1] (agonist: LPS (TLR4) 0.1 ug/mL) it was 0.892.
With `O=[N+]([O-])c1ccc(S(=O)(=O)N2CCN(c3ccnc4cc(Cl)ccc34)CC2)c([N+](=O)[O-])c1` (library stock concentration (final ~1000-fold dilution): 10 mM), the “IRF Lucia reporter activity” value is 0.0178 in experiment [3] (setting [4]) and 0.0517 in experiment [3] (agonist: LPS (TLR4) 0.1 ug/mL).
For the compound `Cc1c(CN2CCC(Nc3ncnc4sc(CC(F)(F)F)cc34)CC2)ccc2[nH]c(C#N)cc12` (library stock concentration (final ~1000-fold dilution): 10 mM), the figures for the “IRF Lucia reporter activity” value in experiment [1] (setting [4]) and in experiment [1] (agonist: LPS (TLR4) 0.1 ug/mL) were 0.265 and 0.691, respectively.
For the compound `O=[N+]([O-])c1ccc(Sc2cccc[n+]2[O-])c2nonc12` (library stock concentration (final ~1000-fold dilution): 10 mM), the “IRF Lucia reporter activity” value in experiment [3] (setting [4]) is 0.262; in experiment [3] (agonist: LPS (TLR4) 0.1 ug/mL), 0.0128.
